Results published in the supplement of paper PMC12217912.
This is one part of the list. Sequences were assembled here from the parent chain. Values near 0.05 are background.

B1: TEV protease; numbered along this chain (parent)
chain: MGESLFKGPRDYNPISSSICHLTNESDGHTTSLYGIGFGPFIITNKHLFRRNNGTLVVQSLHGVFKVKDTTTLQQHLVDGRDMIIIRMPKDFPPFPQKLKFREPQREERICLVTTNFQTKSMSSMVSDTSCTFPSGDGIFWKHWIQTKDGQCGSPLVSTRDGFIVGIHSASNFTNTNNYFTSVPKNFMELLTNQEAQQWVSGWRLNADSVLWGGHKVFMVKPEEPFQPVKEATQL

Variants of: B1
Test: raw area under fraction-flipped curve 0-4 h after induction (AUC4h, not background-subtracted), DNA-recorder readout of cleavage of the substrate (dimensionless); higher = more cleavage of the substrate by the protease variant
Details: temperature: 34 °C; time window: 0-4 h after rhamnose induction
Procedure: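 In vivo DNA recorder in E. coli TOP10(DE3) ΔrhaA at 34 °C. Each TEVp single-site mutant (parent TEVp 0) is paired with a single-site variant of the 7-mer TEVs (canonical ENLYFQ|S). The substrate sits between flexible linkers in a Bxb1-sfGFP-TEVs-SsrA fusion, so cleavage stabilises Bxb1 and speeds flipping of a recombination array, read by NGS. The value is the raw area under the fraction-flipped curve over 0-4 h after rhamnose induction (AUC4h), with ≥20 reads per time point. It is not background-subtracted; inactive controls average about 0.047.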
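Also: Bxb1 expression induced with 0.2% (w/v) L-rhamnose at OD600 near 0.5, cultures sampled hourly, flipped fraction per protease–substrate barcode pair counted by paired-end Illumina sequencing.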

Variant	area with substrate ENLYFQA	area with substrate ENLYFQC	area with substrate ENLYFQG	area with substrate ENLYFQI	area with substrate ENLYFQL	area with substrate ENLYFQM	area with substrate ENLYFQN	area with substrate ENLYFQR	area with substrate ENLYFQS	area with substrate ENLYFQT	area with substrate ENLYFQW	area with substrate ENLYFQY	area with substrate ENLYFQF	area with substrate ENLYFQV	area with substrate ENLYFQD	area with substrate ENLYFQH	area with substrate ENLYFQQ	area with substrate ENLYFQK	area with substrate ENLYFQP	area with substrate ENLYFQE
C111H	0.116	0.106	0.0689	0.0545	0.0656	0.0975	0.0864	0.0654	0.114	0.0556	0.0622	0.122								
L99Q	0.095	0.115	0.106	0.0529	0.0588				0.0973	0.0444			0.061	0.0619						
F133M	0.0904	0.116	0.115	0.0537	0.0583	0.0815		0.0637	0.11	0.0714	0.0592			0.0637	0.105	0.0913	0.0745			
F133P	0.0642	0.0758	0.0381	0.0391	0.0509	0.0602	0.0618	0.0569	0.0689	0.0572		0.061			0.0752			0.0388	0.0505	
K98N	0.129	0.118	0.0932	0.0678	0.074	0.101	0.0786	0.0606	0.103	0.0413	0.0653					0.0863		0.0665	0.0495	
K98P	0.0986	0.112	0.116	0.0527	0.0602	0.0783	0.0618	0.0661	0.0983	0.0587	0.0671		0.0767	0.0683	0.0639	0.0751		0.0638		
K98S	0.113	0.122	0.0734		0.0674	0.0799	0.0585	0.0674	0.1	0.0802		0.0879		0.0641	0.0606			0.0757		
E103T	0.128	0.108		0.0592	0.058		0.0813	0.0727	0.0973	0.0467	0.0681						0.0756			
S121I	0.0921		0.0993		0.0703		0.075		0.095	0.0665	0.0616		0.0822	0.0723	0.0777	0.0869	0.0641	0.066		
S121K	0.117	0.126	0.105	0.0601	0.0677	0.0878	0.0738	0.0637	0.114	0.0713		0.0754			0.0625	0.0851		0.0653	0.0583	0.0743
F101V	0.0789				0.0695		0.0501	0.0751	0.0688		0.0705		0.0638			0.0568	0.0536		0.0521	
S130E	0.083		0.0726					0.066	0.0862			0.0898				0.0472			0.0397	
S127I	0.103	0.113	0.117	0.064	0.066	0.0915		0.048	0.104	0.0656	0.0652	0.0806	0.0628	0.0536	0.0733	0.091	0.0673	0.0604	0.082	
S127L	0.126	0.124	0.104	0.0703	0.0435		0.0749	0.0533	0.116	0.0835						0.0916		0.0564	0.0526	
D79K	0.0839			0.0547	0.0634	0.0734	0.0956	0.0598	0.0904	0.0589	0.0746	0.0473			0.0709	0.071		0.0558		0.0638
D79S	0.101	0.074	0.0952	0.0537	0.0711	0.0812	0.0645	0.0463	0.0963	0.0661	0.0742		0.0936	0.0521		0.0805		0.0714	0.069	
D79F	0.0869	0.106	0.0848	0.0588	0.0584	0.0788	0.0696	0.0514	0.0881	0.0449	0.0737		0.0752	0.0555	0.0705			0.0379	0.0346	0.0714
D79M	0.0824	0.102	0.0808	0.058	0.0519	0.0787	0.0738	0.0587	0.0936	0.0707	0.067			0.0635	0.0634		0.0756		0.067	
F95H	0.0677	0.0769	0.0728	0.0598	0.0458		0.067	0.0538	0.0895		0.0626	0.0605			0.0746	0.0793		0.054	0.0727	
P89Y	0.0694	0.0683					0.0733		0.0699	0.0602	0.0428	0.0606		0.0986	0.0694		0.0706	0.0191	0.05	0.0326
N116L	0.104			0.0964	0.0582	0.104		0.0681	0.105	0.0605	0.0862	0.0618			0.089	0.107		0.0606		
H76W	0.131			0.0627		0.0622	0.0704	0.0555	0.0806	0.0564		0.071				0.0777				
D82L	0.0519	0.0551		0.0607		0.0514	0.0536	0.0522	0.0561		0.0508	0.0398	0.0443	0.0506		0.0944	0.0723	0.0714	0.051	
L73R	0.0454	0.0626	0.0519					0.0502	0.0585	0.0574	0.0456	0.0513				0.0457		0.0537	0.0365	0.0282
L73E	0.0556	0.0571		0.0432	0.0317			0.0548	0.0547	0.0514			0.072	0.0529	0.0508	0.0519		0.0527		
R102M	0.0557	0.0576	0.0551	0.0626	0.0406		0.0548	0.0445	0.0548		0.0616	0.0425			0.039	0.0504	0.0502	0.06	0.077	0.0544
